The values below come from paper PMC5722342.

Amino acid sequences for entries named in this document (tags omitted).
UniProt Q96J02: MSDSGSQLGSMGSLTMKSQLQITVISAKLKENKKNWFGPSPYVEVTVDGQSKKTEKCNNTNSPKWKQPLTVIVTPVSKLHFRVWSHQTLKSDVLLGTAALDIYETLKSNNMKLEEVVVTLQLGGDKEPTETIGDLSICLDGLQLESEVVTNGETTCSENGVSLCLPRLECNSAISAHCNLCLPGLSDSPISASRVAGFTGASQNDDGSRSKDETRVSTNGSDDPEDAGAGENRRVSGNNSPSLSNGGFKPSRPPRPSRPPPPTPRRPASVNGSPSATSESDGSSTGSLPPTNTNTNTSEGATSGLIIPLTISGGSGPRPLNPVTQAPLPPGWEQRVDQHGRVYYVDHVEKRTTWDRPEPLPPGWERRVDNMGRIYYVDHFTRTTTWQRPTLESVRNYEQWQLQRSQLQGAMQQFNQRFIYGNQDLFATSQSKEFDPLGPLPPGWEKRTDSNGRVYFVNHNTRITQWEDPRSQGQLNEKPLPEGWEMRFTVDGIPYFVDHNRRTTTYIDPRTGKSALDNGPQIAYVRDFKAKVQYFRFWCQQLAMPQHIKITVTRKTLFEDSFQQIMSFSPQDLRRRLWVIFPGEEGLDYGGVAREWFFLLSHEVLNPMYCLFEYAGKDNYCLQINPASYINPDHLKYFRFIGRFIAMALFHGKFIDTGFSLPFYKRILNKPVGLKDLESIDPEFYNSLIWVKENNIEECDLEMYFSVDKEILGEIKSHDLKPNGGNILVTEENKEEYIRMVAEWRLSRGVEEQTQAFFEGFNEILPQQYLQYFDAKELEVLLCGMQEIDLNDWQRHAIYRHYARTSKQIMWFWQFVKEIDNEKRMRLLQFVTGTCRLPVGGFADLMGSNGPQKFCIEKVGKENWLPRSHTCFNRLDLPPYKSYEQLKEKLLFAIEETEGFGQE
UniProt Q9UKV5: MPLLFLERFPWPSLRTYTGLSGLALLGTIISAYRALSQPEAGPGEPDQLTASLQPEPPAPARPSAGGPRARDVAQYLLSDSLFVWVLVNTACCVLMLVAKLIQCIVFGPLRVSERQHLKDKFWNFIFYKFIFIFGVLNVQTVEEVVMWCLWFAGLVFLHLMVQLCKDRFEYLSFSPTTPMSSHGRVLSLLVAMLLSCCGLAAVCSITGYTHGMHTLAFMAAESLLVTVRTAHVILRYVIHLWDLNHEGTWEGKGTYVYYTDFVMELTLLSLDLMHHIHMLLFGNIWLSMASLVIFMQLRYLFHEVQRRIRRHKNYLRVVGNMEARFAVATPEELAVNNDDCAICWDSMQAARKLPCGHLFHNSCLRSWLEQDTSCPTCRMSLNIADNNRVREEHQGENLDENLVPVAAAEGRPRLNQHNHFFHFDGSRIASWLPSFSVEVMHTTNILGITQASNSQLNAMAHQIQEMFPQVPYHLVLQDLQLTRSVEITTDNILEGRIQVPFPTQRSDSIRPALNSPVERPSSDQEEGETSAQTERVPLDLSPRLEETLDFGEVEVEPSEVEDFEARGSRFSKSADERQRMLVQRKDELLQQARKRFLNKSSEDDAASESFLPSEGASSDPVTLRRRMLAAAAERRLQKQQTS
UniProt Q86TM6: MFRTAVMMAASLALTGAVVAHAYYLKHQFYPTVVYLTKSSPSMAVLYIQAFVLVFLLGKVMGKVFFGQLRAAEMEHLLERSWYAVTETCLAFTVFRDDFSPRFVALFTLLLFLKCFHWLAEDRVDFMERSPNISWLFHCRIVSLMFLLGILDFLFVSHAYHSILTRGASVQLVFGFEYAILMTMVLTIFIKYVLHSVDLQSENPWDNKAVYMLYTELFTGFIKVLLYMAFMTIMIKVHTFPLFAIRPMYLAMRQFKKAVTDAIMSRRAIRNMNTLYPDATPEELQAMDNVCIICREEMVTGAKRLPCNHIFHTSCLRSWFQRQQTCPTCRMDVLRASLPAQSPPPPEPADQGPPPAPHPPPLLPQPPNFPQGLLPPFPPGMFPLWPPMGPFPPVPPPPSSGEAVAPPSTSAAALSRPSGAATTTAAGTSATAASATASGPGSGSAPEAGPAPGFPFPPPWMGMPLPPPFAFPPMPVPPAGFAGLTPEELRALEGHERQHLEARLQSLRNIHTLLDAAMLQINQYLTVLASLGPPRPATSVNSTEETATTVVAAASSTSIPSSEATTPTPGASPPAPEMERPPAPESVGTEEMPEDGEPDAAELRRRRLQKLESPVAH
UniProt O14818: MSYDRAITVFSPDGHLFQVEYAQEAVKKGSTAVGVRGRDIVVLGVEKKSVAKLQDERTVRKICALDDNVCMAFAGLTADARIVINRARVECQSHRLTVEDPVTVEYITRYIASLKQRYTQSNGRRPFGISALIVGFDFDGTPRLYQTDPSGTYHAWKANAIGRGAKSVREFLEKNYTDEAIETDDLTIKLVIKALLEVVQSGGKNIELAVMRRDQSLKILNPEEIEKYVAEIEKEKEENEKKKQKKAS
UniProt Q9HCE7: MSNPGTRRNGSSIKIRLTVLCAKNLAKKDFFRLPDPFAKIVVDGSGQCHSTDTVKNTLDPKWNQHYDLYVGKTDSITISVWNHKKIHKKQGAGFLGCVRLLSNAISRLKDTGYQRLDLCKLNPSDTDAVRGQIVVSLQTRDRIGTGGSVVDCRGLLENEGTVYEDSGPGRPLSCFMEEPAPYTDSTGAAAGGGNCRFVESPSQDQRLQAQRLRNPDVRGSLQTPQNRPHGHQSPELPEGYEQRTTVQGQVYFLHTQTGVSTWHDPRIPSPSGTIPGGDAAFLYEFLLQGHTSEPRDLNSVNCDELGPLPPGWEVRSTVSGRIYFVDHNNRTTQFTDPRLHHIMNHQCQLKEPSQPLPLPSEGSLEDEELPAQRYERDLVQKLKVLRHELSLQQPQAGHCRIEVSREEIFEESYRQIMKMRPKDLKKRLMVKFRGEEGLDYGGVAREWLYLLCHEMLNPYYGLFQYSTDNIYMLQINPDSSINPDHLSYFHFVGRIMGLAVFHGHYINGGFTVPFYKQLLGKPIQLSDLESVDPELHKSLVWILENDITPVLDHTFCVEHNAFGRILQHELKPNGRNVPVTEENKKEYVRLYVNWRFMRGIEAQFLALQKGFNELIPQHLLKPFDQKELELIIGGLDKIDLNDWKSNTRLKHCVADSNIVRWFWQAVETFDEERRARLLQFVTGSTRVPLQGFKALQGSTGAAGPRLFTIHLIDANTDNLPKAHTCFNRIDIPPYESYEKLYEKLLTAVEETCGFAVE
UniProt Q14258: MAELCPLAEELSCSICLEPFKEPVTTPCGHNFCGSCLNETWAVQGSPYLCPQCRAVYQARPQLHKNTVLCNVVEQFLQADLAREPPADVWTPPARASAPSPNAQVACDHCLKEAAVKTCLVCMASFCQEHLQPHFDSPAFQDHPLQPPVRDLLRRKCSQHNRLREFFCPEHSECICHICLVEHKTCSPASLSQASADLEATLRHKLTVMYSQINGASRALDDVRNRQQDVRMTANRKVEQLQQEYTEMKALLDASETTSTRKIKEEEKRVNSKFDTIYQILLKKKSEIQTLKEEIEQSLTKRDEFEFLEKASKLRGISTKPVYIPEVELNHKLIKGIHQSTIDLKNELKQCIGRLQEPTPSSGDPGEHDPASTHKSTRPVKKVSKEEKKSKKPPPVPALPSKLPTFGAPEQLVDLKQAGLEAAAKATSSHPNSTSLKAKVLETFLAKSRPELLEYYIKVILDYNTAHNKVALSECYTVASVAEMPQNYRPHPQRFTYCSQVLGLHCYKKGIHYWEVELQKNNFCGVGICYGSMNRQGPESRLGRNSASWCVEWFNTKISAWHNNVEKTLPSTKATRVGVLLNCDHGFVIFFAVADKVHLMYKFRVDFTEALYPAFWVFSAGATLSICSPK

These are yes or no findings as the source states them, for the method shown. In cells and extracts the contact can be indirect. Some entries that bind do so weakly or less than the wild type.

The target in assay [1] is AIP4 (UniProt Q96J02). The assay can be described thus: co-IP.
The target of assay [2] is GP78 (UniProt Q9UKV5). The assay can be described thus: co-IP.
In assay [3] the target is HRD1 (UniProt Q86TM6). As to the kind of experiment: co-IP.
The target of assay [4] is PSMA7 (UniProt O14818). As to the kind of experiment: co-IP.
In assay [5] the target is Smurf1 (UniProt Q9HCE7). The assay can be described thus: co-IP.
Assay [6] concerns the target TRIM25 (UniProt Q14258). The assay can be described thus: co-IP.
For assay [7], the target named is VCP (UniProt P55072). The assay can be described thus: co-IP.
The target of assay [8] is T1, IKKε (UniProt Q14164).
T1 sequence: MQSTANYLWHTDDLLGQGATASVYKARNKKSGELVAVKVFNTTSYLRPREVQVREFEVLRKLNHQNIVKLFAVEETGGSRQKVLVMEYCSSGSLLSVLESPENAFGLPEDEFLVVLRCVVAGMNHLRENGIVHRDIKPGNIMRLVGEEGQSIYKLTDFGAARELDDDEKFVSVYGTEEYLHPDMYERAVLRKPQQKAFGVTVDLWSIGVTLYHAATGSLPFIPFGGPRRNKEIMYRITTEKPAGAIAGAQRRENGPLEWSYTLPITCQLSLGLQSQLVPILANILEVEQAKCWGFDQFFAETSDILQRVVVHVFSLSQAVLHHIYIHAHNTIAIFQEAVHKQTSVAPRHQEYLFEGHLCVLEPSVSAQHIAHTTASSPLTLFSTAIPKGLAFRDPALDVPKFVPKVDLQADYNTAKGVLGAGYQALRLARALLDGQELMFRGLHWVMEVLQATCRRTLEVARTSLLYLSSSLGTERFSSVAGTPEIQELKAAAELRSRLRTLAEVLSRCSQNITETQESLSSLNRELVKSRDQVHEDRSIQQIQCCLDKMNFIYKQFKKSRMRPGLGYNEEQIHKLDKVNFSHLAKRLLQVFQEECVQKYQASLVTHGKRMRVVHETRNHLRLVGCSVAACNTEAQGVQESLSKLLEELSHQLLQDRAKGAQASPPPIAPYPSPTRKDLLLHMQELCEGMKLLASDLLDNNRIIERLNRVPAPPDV
As to the kind of experiment: co-IP; HEK293 cells transfected with the indicated plasmids; NP-40 lysis buffer (20 mM Tris-HCl pH 7.4, 150 mM NaCl, 1 mM EDTA, 1% Nonidet P-40); immunoprecipitation and immunoblot with the indicated antibodies (Fig 4A, 4C).

The target in assay [9] is T2, RIG-I (UniProt O95786).
T2 sequence: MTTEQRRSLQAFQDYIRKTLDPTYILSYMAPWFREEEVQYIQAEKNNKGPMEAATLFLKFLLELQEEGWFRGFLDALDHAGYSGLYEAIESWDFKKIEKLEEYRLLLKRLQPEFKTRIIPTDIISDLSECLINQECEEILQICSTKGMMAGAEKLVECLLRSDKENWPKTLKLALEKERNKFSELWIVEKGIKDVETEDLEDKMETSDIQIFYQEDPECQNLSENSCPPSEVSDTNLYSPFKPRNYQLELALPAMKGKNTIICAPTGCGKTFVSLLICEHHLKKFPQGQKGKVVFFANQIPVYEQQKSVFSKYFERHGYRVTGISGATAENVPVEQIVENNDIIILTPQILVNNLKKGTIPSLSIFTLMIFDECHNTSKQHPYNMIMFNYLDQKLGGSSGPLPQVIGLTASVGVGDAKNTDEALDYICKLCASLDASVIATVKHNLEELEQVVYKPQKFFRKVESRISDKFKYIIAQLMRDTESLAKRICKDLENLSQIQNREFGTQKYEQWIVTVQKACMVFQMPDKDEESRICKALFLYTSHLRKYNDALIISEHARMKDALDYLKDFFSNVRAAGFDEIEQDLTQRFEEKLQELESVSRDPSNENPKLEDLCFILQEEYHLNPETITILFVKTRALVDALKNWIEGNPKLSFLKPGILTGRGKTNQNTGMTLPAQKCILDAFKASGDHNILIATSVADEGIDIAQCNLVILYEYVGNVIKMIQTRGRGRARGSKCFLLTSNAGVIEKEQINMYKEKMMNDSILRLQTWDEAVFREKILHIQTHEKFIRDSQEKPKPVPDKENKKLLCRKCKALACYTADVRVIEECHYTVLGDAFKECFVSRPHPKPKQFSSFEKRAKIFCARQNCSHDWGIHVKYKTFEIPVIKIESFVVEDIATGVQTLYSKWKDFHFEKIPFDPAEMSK
Described as above.

B1: inactive rhomboid protein 2 (iRhom2) (protein, UniProt Q6PJF5 1-856)
chain: MASADKNGGSVSSVSSSRLQSRKPPNLSITIPPPEKETQAPGEQDSMLPEGFQNRRLKKSQPRTWAAHTTACPPSFLPKRKNPAYLKSVSLQEPRSRWQESSEKRPGFRRQASLSQSIRKGAAQWFGVSGDWEGQRQQWQRRSLHHCSMRYGRLKASCQRDLELPSQEAPSFQGTESPKPCKMPKIVDPLARGRAFRHPEEMDRPHAPHPPLTPGVLSLTSFTSVRSGYSHLPRRKRMSVAHMSLQAAAALLKGRSVLDATGQRCRVVKRSFAFPSFLEEDVVDGADTFDSSFFSKEEMSSMPDDVFESPPLSASYFRGIPHSASPVSPDGVQIPLKEYGRAPVPGPRRGKRIASKVKHFAFDRKKRHYGLGVVGNWLNRSYRRSISSTVQRQLESFDSHRPYFTYWLTFVHVIITLLVICTYGIAPVGFAQHVTTQLVLRNKGVYESVKYIQQENFWVGPSSIDLIHLGAKFSPCIRKDGQIEQLVLRERDLERDSGCCVQNDHSGCIQTQRKDCSETLATFVKWQDDTGPPMDKSDLGQKRTSGAVCHQDPRTCEEPASSGAHIWPDDITKWPICTEQARSNHTGFLHMDCEIKGRPCCIGTKGSCEITTREYCEFMHGYFHEEATLCSQVHCLDKVCGLLPFLNPEVPDQFYRLWLSLFLHAGVVHCLVSVVFQMTILRDLEKLAGWHRIAIIFILSGITGNLASAIFLPYRAEVGPAGSQFGLLACLFVELFQSWPLLERPWKAFLNLSAIVLFLFICGLLPWIDNIAHIFGFLSGLLLAFAFLPYITFGTSDKYRKRALILVSLLAFAGLFAALVLWLYIYPINWPWIEHLTCFPFTSRFCEKYELDQVLH
B1: the binding result is listed as “binds” in assay [1]; “binds” in assay [2]; “no binding” in assay [3]; “binds” in assay [4]; “binds” in assay [5]; “no binding” in assay [6]. The binding result in assay [7] is “binds”; in [8], “no binding”; in assay [9], “no binding”.
